# Measurements from the supplement of paper PMC3334620.
# In all, about 33,000 sequences were measured (“E-score (-0.5 to 0.5)”: median about -0.017, highest 2% from about 0.3 on). This is one part of the list.
# Biological target: T1, Sut1 (UniProt P53032)
# T1 sequence: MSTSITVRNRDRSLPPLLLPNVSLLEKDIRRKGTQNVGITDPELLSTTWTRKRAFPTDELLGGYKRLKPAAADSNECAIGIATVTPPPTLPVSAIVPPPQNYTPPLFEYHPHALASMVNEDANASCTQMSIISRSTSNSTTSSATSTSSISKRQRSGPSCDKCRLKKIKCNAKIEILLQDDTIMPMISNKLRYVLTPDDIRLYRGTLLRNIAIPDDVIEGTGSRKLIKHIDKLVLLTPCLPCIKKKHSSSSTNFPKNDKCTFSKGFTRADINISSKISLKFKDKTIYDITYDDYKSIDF
# Test: PBM E-score (8-mer binding enrichment) (E-score (-0.5 to 0.5)); higher = stronger / more preferred TF binding; most listed sequences are background and not binding sites
# Conditions: protein concentration: 200 nM; construct: GST-full length
# Protocol: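 Universal 'all 10-mer' protein binding microarrays (Agilent AMADID 015681) probed with GST-tagged S. cerevisiae TFs (full-length or DBD) made by in vitro transcription/translation (PURExpress), about 100-200 nM. Bound TF was detected with fluorescent anti-GST. Each ungapped 8-mer (which stands for itself and its reverse complement) is scored by the PBM enrichment score (E-score), a modified Wilcoxon-Mann-Whitney statistic from -0.5 to +0.5, computed with the Universal PBM Analysis Suite. Scale: above 0.35 generally sequence-specific binding.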
row,Sequence,PBM E-score
1,GACTCCGC,0.429
2,AGACGTTG,0.0136
3,ACCCGTTG,-0.287
4,ACCGGAAC,0.29
5,AGGGTTGC,-0.139
6,CAAGCGCC,-0.144
7,CACAGGAC,-0.0824
8,AGTAGTTC,0.134
9,ACCTAGAG,0.0112
10,GTCGGGCA,-0.287
11,AAATCGAT,-0.137
12,ACTTTAGG,-0.0588
13,CCAGCCAC,-0.151
14,CCCCGTAA,0.0974
15,GAGCCTAC,-0.129
16,ATGAAACG,0.0833
17,ATTATTGA,0.0438
18,AAGAGAGG,-0.101
19,GAAAAGTC,0.195
20,AGAATGCT,-0.0972
21,AAATGTTG,-0.173
22,TACATGGA,0.04
23,GTCCGGGA,0.413
24,ATAATTCC,0.202
25,CCAATATC,0.0888

row,Sequence,PBM E-score
1,ATCTCACA,-0.00326
2,ACCTACCC,-0.0933
3,AGCAAAGC,-0.121
4,TAACATTA,0.208
5,TGCGAAAA,0.175
6,CCTCACGA,-0.226
7,ATTATATG,0.134
8,AGTGGCAG,-0.0973
9,CACTTCGG,0.0808
10,GGTTCTCA,-0.0185
11,CCCCGTAG,-0.109
12,CTCAATGA,-0.0214
13,CGTGCGAC,-0.237
14,TAGGACCA,-0.108
15,CATCCAAA,0.0766
16,AAGAAAGA,0.228
17,ACGGTCGG,-0.117
18,TGATCGCA,-0.221
19,GGTGCCGA,0.0169
20,CTAGAAAC,-0.03
21,CCATGTAG,-0.0931
22,AGCTCTCG,-0.0248
23,ATCTGACA,-0.111
24,AATGCCCT,-0.287
25,ACAGAAAC,0.115

row,Sequence,PBM E-score
1,CGTATCTA,0.0945
2,CAGGTAAC,-0.168
3,CGATATCG,0.126
4,CCCTCAAC,-0.184
5,AGATGAGG,-0.0886
6,GAAACCTC,-0.086
7,AGGAGTGC,-0.143
8,AGTGACAA,0.111
9,CCTCTCCG,0.178
10,TCACGACA,-0.142
11,ACGACTCG,-0.172
12,AGTAGGCA,0.154
13,AGTAACCC,0.0188
14,TTACGAAA,0.241
15,AACTATTG,0.15
16,AAGCCATT,-0.00374
17,CCCAAAGC,-0.0681
18,GATACTAC,-0.0164
19,ATAGCTTC,0.118
20,GAATATAA,0.153
21,CTCGGGTC,-0.0594
22,AGGAGGCC,-0.186
23,CGGTAATA,0.27
24,CGCCTTCC,0.0146
25,CGACGACC,0.0495

row,Sequence,PBM E-score
1,AAGGTTAA,0.139
2,ACGTAGCA,-0.16
3,GCCCGGCC,-0.0583
4,ATTCCAAC,-0.0428
5,AGCCGGAA,0.233
6,CGTGCGTA,-0.152
7,GCCAACCA,-0.0657
8,AGATTAGG,-0.0597
9,GGCGGATA,-0.119
10,AAACATTC,0.115
11,GAATGTAA,0.18
12,CGCGCTAA,0.14
13,CGAGCACA,-0.0247
14,AGCCTTTG,-0.165
15,AACGGAAT,0.294
16,ACAGCCGA,-0.268
17,CTAAGATC,0.093
18,GCGTCCGA,-0.09
19,GGTAGGTA,0.0335
20,CCCAATAG,-0.0632
21,AGCGTTTC,0.0496
22,CCAGTCGG,0.0988
23,GATAGACA,-0.095
24,ATCCTGTG,-0.0363
25,ATTAGTAC,0.125

row,Sequence,PBM E-score
1,AAGTATGG,0.0429
2,AATAATTA,0.329
3,ATGGGCGG,-0.142
4,CATTAGCA,-0.0751
5,CTTTCCGC,0.254
6,AGGTGACT,-0.0698
7,TGACCTAA,0.0458
8,CCACATTC,0.00225
9,GCAGATCC,-0.0446
10,AGGGGGCC,-0.465
11,AGGTCCCG,0.0931
12,GTAAGGCA,-0.14
13,GTCCATCA,-0.0674
14,CACGGCTG,-0.414
15,CCCCCGGC,-0.251
16,GATCCCGA,-0.064
17,ATATGGAG,0.1
18,CTGGGAGA,-0.157
19,CAGCCCCC,-0.284
20,AGCTGGGG,-0.138
21,GTACCGAA,-0.0465
22,ACCGTACC,-0.185
23,ACGAATTC,0.0693
24,CGCACCAA,-0.169
25,GGGATCGA,-0.18

row,Sequence,PBM E-score
1,CGTCCTCA,-0.163
2,AAAAACAA,0.316
3,GGCTGAGA,0.0723
4,ATGCAGAG,-0.162
5,ATGGCGAA,0.0828
6,GACAACTC,0.214
7,CCATGGTC,-0.177
8,ACCCCCTC,-0.352
9,GAGGATAC,-0.142
10,CCAGTTCA,-0.0558
11,AATCATTA,0.203
12,CCTCAGTA,-0.122
13,ATAGTTGC,0.0377
14,CAGGTGGC,-0.219
15,CGACCTCC,0.173
16,TACAGAAA,0.156
17,CGTAGTCA,-0.0242
18,ACCAGCCG,0.0118
19,ACTTGAAT,0.234
20,AGCTCAAA,0.175
21,ATAAGGCG,-0.126
22,CGGTCAAA,0.14
23,GGAGGAAC,-0.117
24,AGGCTTGA,-0.0347
25,ATCTCAAG,0.106

row,Sequence,PBM E-score
1,CGACGTGA,-0.0762
2,CATCGCGA,-0.0789
3,CGGCACCC,-0.103
4,CCGGTCAA,0.0902
5,CAAGACTC,-0.00522
6,CCTACTTC,0.0118
7,AAAGGGGT,-0.231
8,AACAACGG,0.175
9,ATATACAC,0.248
10,AGACACTG,-0.268
11,ATCAGCGC,0.014
12,GCCTCCGA,0.0353
13,CCGCTCAA,-0.078
14,CTGCATCA,-0.124
15,CCTGTGTC,-0.193
16,AGGGGAAG,-0.327
17,CGTAGTAC,-0.0996
18,AGTCAATG,-0.0996
19,CTAAATAG,0.0251
20,GATCGGGA,-0.148
21,GAGCAGCA,0.00604
22,ACAGCAAT,0.154
23,CCGTTCCC,-0.0906
24,ATACGATC,0.0375
25,GATCTGCC,-0.101

row,Sequence,PBM E-score
1,AAAGAATC,0.14
2,AAGGGGTG,-0.252
3,CGCTACTC,0.0248
4,ACTTCGAT,0.0824
5,AGTGTAGC,-0.123
6,GCCTGCAA,-0.147
7,AGAGCTAG,-0.194
8,CTAGAGGA,-0.182
9,GTAGTCAC,-0.203
10,GAAAAGTA,0.14
11,AATGTGCA,0.118
12,GGAGTGCA,0.18
13,GTAAATAC,-0.0034
14,AGTGAGCG,-0.0213
15,AAGCAAGC,-0.115
16,AAGTTTCC,0.212
17,TTGCGAAA,0.158
18,GAATGAGA,0.198
19,AGCATGGG,-0.138
20,AGAAATAC,0.101
21,AGGATACG,-0.289
22,AACAAATT,0.306
23,CTTTCTTC,0.136
24,CGATGTAG,-0.109
25,GGAACATA,0.0983

row,Sequence,PBM E-score
1,CTAACGGA,0.305
2,AGCTAGCT,0.00936
3,AGTATTTA,0.205
4,CTGAAACA,-0.00856
5,ATGGTAGA,0.0301
6,GAGGAGGC,-0.194
7,AACACGGT,-0.0556
8,AGCTAGTA,0.037
9,CTTCAAAC,0.153
10,GCGATGAA,0.00043
11,CCTGTTTA,-0.0053
12,CACGTGGC,-0.386
13,CGAGTAAG,0.0896
14,GGCCCACA,-0.0879
15,GGACCACC,0.0358
16,CTTAAACC,0.0346
17,GACAATCA,-0.00977
18,ATCCGTAC,0.178
19,ACATGCAA,0.0642
